The list shows a part of the results. Sequences were assembled here from the parent chain. Values near 0.05 are background.
B1: TEV protease; numbered along this chain (parent)
chain: MGESLFKGPRDYNPISSSICHLTNESDGHTTSLYGIGFGPFIITNKHLFRRNNGTLVVQSLHGVFKVKDTTTLQQHLVDGRDMIIIRMPKDFPPFPQKLKFREPQREERICLVTTNFQTKSMSSMVSDTSCTFPSGDGIFWKHWIQTKDGQCGSPLVSTRDGFIVGIHSASNFTNTNNYFTSVPKNFMELLTNQEAQQWVSGWRLNADSVLWGGHKVFMVKPEEPFQPVKEATQL

Variants of: B1
Experiment: raw area under fraction-flipped curve 0-4 h after induction (AUC4h, not background-subtracted), DNA-recorder readout of cleavage of the substrate (dimensionless); higher = more cleavage of the substrate by the protease variant
Settings: temperature: 34 °C; time window: 0-4 h after rhamnose induction
Method: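 In vivo DNA recorder in E. coli TOP10(DE3) ΔrhaA at 34 °C. Each TEVp single-site mutant (parent TEVp 0) is paired with a single-site variant of the 7-mer TEVs (canonical ENLYFQ|S). The substrate sits between flexible linkers in a Bxb1-sfGFP-TEVs-SsrA fusion, so cleavage stabilises Bxb1 and speeds flipping of a recombination array, read by NGS. The value is the raw area under the fraction-flipped curve over 0-4 h after rhamnose induction (AUC4h), with ≥20 reads per time point. It is not background-subtracted; inactive controls average about 0.047.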
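Further: Bxb1 expression induced with 0.2% (w/v) L-rhamnose at OD600 near 0.5, cultures sampled hourly, flipped fraction per protease–substrate barcode pair counted by paired-end Illumina sequencing.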

| Variant | area with substrate ENLYFAS | area with substrate ENLYFFS | area with substrate ENLYFHS | area with substrate ENLYFIS | area with substrate ENLYFKS | area with substrate ENLYFLS | area with substrate ENLYFMS | area with substrate ENLYFNS | area with substrate ENLYFPS | area with substrate ENLYFRS | area with substrate ENLYFSS | area with substrate ENLYFVS | area with substrate ENLYFWS | area with substrate ENLYFYS | area with substrate ENLYFDS | area with substrate ENLYFTS | area with substrate ENLYFES | area with substrate ENLYFCS | area with substrate ENLYFGS |
| --- | --- | --- | --- | --- | --- | --- | --- | --- | --- | --- | --- | --- | --- | --- | --- | --- | --- | --- | --- |
| Q118P | 0.0745 | 0.0675 | 0.052 | 0.0499 | 0.0525 | 0.0475 | 0.0635 | 0.0845 | 0.0586 | 0.0641 | 0.0661 | 0.0449 | 0.0479 | 0.0533 | – | – | – | – | – |
| K230Y | 0.0463 | 0.0638 | 0.0629 | 0.0572 | 0.0554 | 0.0722 | 0.0502 | – | 0.0651 | – | 0.0657 | 0.0546 | 0.0465 | – | 0.0563 | 0.0576 | – | – | – |
| N172T | 0.0593 | – | – | – | 0.0547 | – | 0.0512 | 0.0591 | – | 0.0467 | – | – | – | – | 0.0488 | – | 0.0597 | – | – |
| G213V | 0.0403 | 0.0644 | – | 0.0599 | 0.052 | – | – | – | 0.0671 | – | – | – | 0.0597 | – | – | 0.0635 | – | 0.0483 | – |
| F133R | 0.0625 | 0.0674 | – | 0.0565 | 0.0535 | 0.0607 | – | 0.0647 | 0.0965 | 0.0626 | 0.0305 | 0.065 | 0.0587 | – | – | – | – | 0.0603 | 0.0296 |
| I84D | 0.0523 | 0.0541 | – | 0.0411 | 0.0624 | – | 0.0583 | 0.0489 | 0.0276 | 0.0393 | – | 0.0494 | – | 0.042 | 0.0356 | 0.0566 | 0.0482 | – | 0.0485 |
| M125H | 0.066 | 0.0684 | – | 0.0578 | 0.0584 | – | 0.0656 | 0.0555 | 0.0633 | 0.0516 | 0.116 | 0.0441 | – | 0.0679 | 0.0535 | 0.0672 | 0.0632 | 0.0761 | – |
| E3L | 0.0666 | 0.0776 | 0.051 | 0.059 | – | 0.0584 | 0.0647 | – | 0.0442 | – | 0.0518 | – | – | 0.0489 | – | 0.0657 | 0.0596 | – | 0.0828 |
| L73H | 0.0623 | – | 0.0596 | 0.0545 | 0.0613 | – | 0.0519 | 0.0373 | – | 0.0507 | – | – | 0.046 | – | – | 0.0185 | 0.0465 | 0.0453 | – |
| Q198M | 0.0592 | 0.113 | 0.0498 | 0.0622 | 0.0525 | – | 0.0661 | – | 0.062 | 0.0703 | 0.0602 | 0.0626 | – | 0.063 | – | 0.06 | 0.0593 | 0.064 | – |
| I167C | 0.0393 | 0.0588 | 0.0593 | 0.0545 | 0.0581 | 0.0619 | 0.0768 | 0.0622 | 0.0625 | 0.0542 | – | 0.0538 | 0.0558 | 0.0656 | – | 0.0494 | – | – | – |
| G54E | 0.0633 | 0.0622 | – | 0.0515 | 0.0656 | 0.0519 | 0.0569 | 0.0541 | 0.0668 | 0.0638 | – | – | – | – | – | 0.0701 | – | 0.059 | 0.0539 |
| V183Q | 0.0457 | – | 0.052 | 0.0584 | 0.0583 | 0.0558 | 0.0431 | 0.0629 | 0.035 | – | – | 0.0541 | – | 0.0606 | – | 0.0408 | 0.0558 | – | 0.0461 |
| E103R | 0.0592 | 0.0731 | 0.0653 | 0.0692 | 0.059 | 0.0559 | 0.0485 | 0.0619 | 0.0654 | 0.0726 | 0.0692 | 0.0318 | 0.0571 | 0.0452 | 0.0625 | 0.0596 | 0.0656 | 0.0648 | – |
| P225G | 0.0623 | 0.0528 | 0.0879 | 0.0597 | 0.052 | – | 0.0635 | 0.0547 | 0.0649 | 0.0409 | – | 0.0535 | 0.0553 | – | – | – | 0.071 | 0.0598 | – |
| P228G | 0.0598 | 0.0618 | – | 0.0625 | – | – | 0.0715 | 0.0587 | 0.0606 | 0.058 | – | – | – | 0.0589 | – | 0.0377 | 0.0535 | – | 0.054 |
| F218W | 0.0701 | – | – | 0.0571 | 0.079 | – | – | – | 0.0584 | 0.0612 | – | 0.0585 | – | – | – | 0.0426 | 0.0639 | – | 0.0566 |
| T233L | 0.0664 | 0.03 | – | 0.0651 | – | – | 0.0735 | 0.0553 | – | 0.0559 | 0.0406 | 0.0448 | 0.0502 | – | – | 0.0542 | – | 0.0535 | 0.062 |
| T30E | 0.0544 | 0.0589 | 0.0554 | 0.0535 | 0.0556 | – | 0.0739 | 0.0569 | 0.057 | – | – | 0.0612 | 0.0653 | 0.0496 | 0.0582 | 0.0656 | 0.0738 | 0.0506 | 0.0571 |
| K100C | 0.0504 | 0.0682 | – | 0.0533 | 0.0553 | – | 0.0713 | 0.0634 | 0.0585 | 0.0641 | – | 0.0608 | 0.045 | 0.0429 | 0.0456 | 0.0641 | 0.061 | 0.0718 | – |
| R106Y | 0.0638 | – | 0.0632 | 0.06 | – | 0.0681 | 0.0612 | 0.0716 | 0.0685 | 0.0622 | 0.0691 | – | 0.0528 | 0.0561 | – | 0.0541 | 0.0712 | 0.0592 | 0.0648 |
| V229A | 0.0698 | 0.0609 | – | 0.0455 | – | – | 0.0598 | 0.0657 | 0.0496 | – | – | 0.0618 | – | – | 0.0569 | 0.0643 | 0.0895 | – | – |
| R51Y | 0.0423 | 0.0714 | – | 0.0368 | 0.0645 | – | – | 0.0739 | 0.0538 | – | – | – | – | 0.072 | 0.0824 | 0.055 | 0.0616 | – | 0.0587 |
| K68H | 0.0636 | 0.0581 | 0.0596 | 0.0548 | – | – | 0.0923 | – | 0.0549 | – | 0.0729 | – | – | – | – | 0.0638 | 0.0658 | 0.0671 | – |
| S124H | 0.0701 | 0.0664 | – | 0.0573 | – | 0.0045 | 0.0641 | – | 0.0519 | 0.0631 | – | – | 0.0523 | – | 0.077 | 0.0537 | 0.0651 | – | – |
| R109V | 0.0656 | 0.0622 | 0.0419 | 0.0514 | 0.0685 | 0.066 | 0.068 | 0.0761 | 0.074 | 0.0731 | 0.0667 | 0.0509 | 0.0533 | – | – | 0.0649 | 0.0644 | – | 0.0631 |
| R87C | 0.0585 | 0.0819 | 0.0451 | 0.0476 | 0.0638 | – | 0.0463 | 0.0657 | 0.0643 | – | 0.0422 | – | 0.0528 | – | – | 0.0501 | – | – | 0.0551 |

Reference: the supplement of paper PMC12217912
